# In all, about 71,000 compounds went through this assay and about 1,800 (2.5%) were called active. The inconclusive results got no clear call from the source; some entries with a clear call stand among them for comparison. Calls follow the shape of the dose curve; as a rule, active = well fitted activation curve with a large enough effect in the signal ratio, with a control signal flat (not every such curve was filed as active); inconclusive = small, poorly fitted or top-dose-only effect, or effect the other way, or a change in a side signal; inactive = flat fitted curve, though single readings scatter; the % refers to the signal ratio. Where the call is inconclusive, the potency comes from a doubtful curve fit.
# Experiment: Cell signaling CRE-BLA (Fsk stim); as to activity change, negative = inhibition: % of control where 0% means no effect
# Details: CHO CRE-bla reporter (cAMP response element driving beta-lactamase), forskolin EC10, beta-lactamase ratio; activity change, negative = inhibition: at 38.2 µM (top of the series) unless noted
# Summary of the method: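 Forskolin analogue NKH 477 at EC10 stimulated CRE-driven beta-lactamase in CHO cells alongside compound dilution series. Beta-lactamase was measured with CCF4, excitation 405 nm, emission ratio 460/530 nm.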
# Potency is read from the fitted curve at half-maximal effect; tags tell the direction and shape of the fitted curve.
SMILES,"activity change, negative = inhibition",Potency
O=C(CSc1nnc(Cn2c(=O)sc3ccccc32)n1-c1ccccc1)Nc1nccs1,inactive: -12.1%,
CCn1c(C2CC(=O)N(c3ccc(C)c(C)c3)C2)nc2ccccc21 (stereo not given),,"inconclusive: 10 µM [rising, single point]"
COc1cccc(C2C(C#N)=C(N)OC3=C2C(=O)CC(c2ccco2)C3)c1OCc1ccc(F)cc1 (stereo not given),inconclusive: 26.3%,
COc1ccc(CCNc2nc(-c3sc(N)nc3C)cs2)cc1OC,,"inconclusive: 3.16 µM [rising, single point]"
O=C(CSc1nnnn1-c1ccc2c(c1)CCC2)Nc1ccc2c(c1)OCCO2,inconclusive: -17.2%,
N#CCn1c(C2CCCCC2)nc2ccccc2c1=O,,"inconclusive: 0.794 µM [rising, full curve, poor fit]"
O=C(O)c1ccccc1C(=O)OCCCCOC(=O)c1ccccc1C(=O)O,inconclusive: -11.6% [at 7.6 µM],
O=C(CNS(=O)(=O)c1ccc(Br)s1)NCc1ccc2c(c1)OCO2,inconclusive: 5.91%,
CC(=O)Cc1nsc(NC(=O)c2ccc(Br)o2)n1,inconclusive: -5.19%,
CCCn1c(CCC(=O)O)ccc1-c1ccc(OC)cc1,inconclusive: 9.69%,
C[C@@H]1C[C@@H]2[C@H]3CCC4=CC(=O)C=C[C@]4(C)[C@]3(Cl)[C@@H](O)C[C@@]2(C)[C@@]1(O)C(=O)CO,inactive: -0.957%,
COc1ccccc1CN1CC2(CCN(C(=O)c3ccncc3)CC2)C1,inactive: 2.16%,
O=C1C[C@H]2OCC=C3CN4CC[C@@]5(C(=O)O)[C@H](N1)[C@H]2[C@H]3C[C@H]45,inactive: 1.01% [at 7.6 µM],
COc1ccc(-c2nc(C(N)=O)c3[nH]c(=O)n(-c4cccc(C)c4)c3n2)c(OC)c1,,active: 10 µM
O=C(O)c1cc2c(ccc3ccccc32)[nH]1,inactive: -8.37%,
CCOC(=O)c1sc(NC(=O)CN2CCCC2)c(C(=O)OCC)c1C,inactive: 7.53%,
CCOC(=O)COc1ccc2cc(C(=O)OCC)c(=O)oc2c1,inconclusive: 18.8% [at 7.6 µM],
CS(=O)(=O)N1CCC2(CCN(Cc3nccs3)CC2)CC1,inactive: 3.52%,
Cc1c2c(n3c(nc4ccccc43)c1C#N)N(Cc1ccccn1)CC2,inactive: 3.31%,
CCOC(=O)c1cc(-c2ccco2)nc2c1c(C)nn2CCC#N,,"inconclusive: 10 µM [rising, partial curve]"
COc1cc(NC(=O)c2cc(-c3ccco3)on2)c(OC)cc1Cl,inactive: 3.65%,
CCCCCCn1c(CN2CCN(C(=O)c3ccco3)CC2)nc2c1c(=O)n(C)c(=O)n2C,inconclusive: 16.3%,

SMILES,"activity change, negative = inhibition",Potency
Cc1cnc(-c2nnc(N(C)C(=O)c3ccncc3)s2)cn1,inactive: -1.01%,
Cc1nc2ccccc2c2oc(C(=O)NCc3ccc4c(c3)OCO4)cc12,inactive: 19.8%,
O=C(O)CS(=O)c1ccc2c3c(cccc13)C(=O)c1ccccc1-2 (stereo not given),,"inconclusive: 3.98 µM [falling, single point]"
CN1CCN(c2ncc3nc(-c4ccc(Cl)cc4)c(=O)n(Cc4ccc(F)cc4)c3n2)CC1,,"inconclusive: 0.398 µM [rising, full curve]"
O=C(c1ccco1)N1CCN(C(=O)C2CCCc3c2[nH]c2ccc(Cl)cc32)CC1 (stereo not given),inactive: -23.3%,
CN(C)S(=O)(=O)N(CC(=O)Nc1ccccc1C(F)(F)F)c1ccccc1,inactive: -2.46%,
Nc1ccc2nc(-c3ccc(Cl)cc3)[nH]c2c1,inconclusive: 26.7%,
CNc1oc(-c2ccc(OCc3ccccc3)cc2)nc1C#N,inactive: 11%,
O=C(CSc1nc2ccccc2o1)c1cc2ccccc2oc1=O,inactive: -14%,
Cc1ccc(C2C(C(=O)c3sc(C)nc3C)=C(O)C(=O)N2CCCN(C)C)o1 (stereo not given),inconclusive: 8.36%,
O=C(c1ccccc1)n1nc(-c2ccccc2)nc1NCc1ccco1,inconclusive: -21.8%,
CCOC(=O)/C(C(C)=O)=C1\OC(=O)c2ccccc21,inconclusive: 26.8%,
CN(C)c1nc(-c2cccnc2)nc2ccccc12,,"inconclusive: 12.6 µM [rising, partial curve]"
CCCCC(=O)Nc1ccc2oc(-c3ccncc3)nc2c1,,"inconclusive: 10 µM [rising, single point]"
Cc1cccc(N(CC(=O)Nc2ccc(CC#N)cc2)S(C)(=O)=O)c1,inconclusive: -2.71%,
Cc1nc(N2CCN(c3ncccn3)CC2)c2oc3ccccc3c2n1,,"inconclusive: 7.94 µM [rising, partial curve]"
O=S1(=O)C=C(Sc2nc3cc(Cl)ccc3o2)c2ccccc21,,"inconclusive: 3.16 µM [falling, single point]"
O=C(Nn1cnnc1)c1cc2c(s1)CCCCC2,inconclusive: 8.95%,
CC(=O)Nc1c(OC(C)=O)ccc2c(C)cc(=O)oc12,,"inconclusive: 25.1 µM [rising, single point]"
CCOc1ccccc1NC(=O)CSc1nnc2c(CC)c(C)nc(N)n12,inactive: 8.89%,
CCSC1=N/C(=C\c2ccc(C(=O)O)cc2)C(=O)S1,inactive: 6.43%,
CC1=C(C(=O)OCc2ccccc2)C(c2ccc(C3CCCCC3)cc2)NC(=O)N1CCCCCC(=O)O (stereo not given),inconclusive: -22.5%,

SMILES,"activity change, negative = inhibition",Potency
Cc1onc(-c2ccccc2Cl)c1C(=O)N1CCCCC1C(=O)O (stereo not given),inactive: 2.09%,
COc1ccc(C(=O)CN2C(=O)NC3(CCCc4ccccc43)C2=O)cc1OC (stereo not given),inconclusive: 29.7%,
COc1ccc(CC(=O)Nc2ccc(-c3noc(-c4cc(OC)c(OC)c(OC)c4)n3)cc2)cc1,inactive: 4.95%,
CCOC(=O)c1[nH]c2c(c1C)C(=O)CC(c1ccco1)C2 (stereo not given),,active: 1 µM
Cc1c(Cl)c(S(N)(=O)=O)cc2c1=NC=NS=2(=O)O,inactive: 15.4% [at 7.6 µM],
CCN1C2=NCCCN2c2cc(C)c(C)cc21,inactive: 2.52%,
CCC(Sc1nc(C)cc(=O)[nH]1)C(=O)Nc1nnc(C)s1 (stereo not given),inactive: -2.35%,
Cc1occc1C(=O)NC(C)C(C)(C)C (stereo not given),,"inconclusive: 0.0316 µM [rising, full curve, poor fit]"
CCn1c(=O)c(C(=O)CN2CCCc3ccccc32)c(N)n(Cc2ccccc2)c1=O,inconclusive: -27.2%,
COc1ccc(C2OC(=O)c3ccccc3S2)cc1 (stereo not given),inconclusive: 12% [at 7.6 µM],
COc1ccc(Nc2nc(C)c3ccccc3n2)cc1,inactive: 0.434%,
O=C(NCCN1CCN(c2ccccc2)CC1)c1cccn2c(=O)c3ccccc3nc12,inconclusive: 52%,
NCCn1c(=O)c(CCc2ccccc2)nc2cncnc21,,"inconclusive: 25.1 µM [rising, single point]"
O=C1C=C(c2ccccc2)C(O)(c2ccccc2)C1 (stereo not given),inactive: -8.8%,
Cc1cc(C)c2nc(C(F)(F)F)nc(NCCCN3CCCC3=O)c2c1,inconclusive: -3.15%,
Nc1cc(-c2nn[nH]n2)ccc1F,inconclusive: -14.6%,
CN1C(=O)CSc2ccc(NC(=O)N3CCN(c4ccccn4)CC3)cc21,inconclusive: 16.7%,
Cc1ccc(C2NC(=O)NC(O)(C(F)(F)F)C2C(=O)c2cccs2)o1 (stereo not given),inactive: -8.4%,
COc1ccccc1CN1CCCC2(CCN(C(=O)c3cnccn3)CC2)C1,inactive: -3.7%,
COc1ccc(CCNC(=O)c2noc3c2CCCC3)cc1OC,,"inconclusive: 12.6 µM [rising, single point]"
Cc1cc(=O)n2nc(N3CCCC(C(=O)N4CCOCC4)C3)sc2n1 (stereo not given),inconclusive: 12.6%,
Cc1cccc(N2CCN(C(=O)c3ccc(N4CCCC4=O)cc3)CC2C)c1 (stereo not given),inconclusive: 22.7%,

SMILES,"activity change, negative = inhibition",Potency
CN(C)CCCCCNCCCNC(=O)/C=N\O,,"inconclusive: 0.316 µM [rising, partial curve]"
CCCN1C(=O)/C(=C2\SC(N3CCCCC3)=NC2=O)c2ccccc21,,"inconclusive: 3.16 µM [rising, single point]"
CCOC(=O)N1CCN(Cc2oc(CO)cc(=O)c2O)CC1,inconclusive: -5.82%,
Cc1cccc(Nc2n[nH]c(=S)s2)c1C,,"inconclusive: 3.98 µM [rising, partial curve]"
CCOC(=O)C(C)Oc1cccc2c(=O)n(CC(=O)NCc3ccco3)ccc12 (stereo not given),,"inconclusive: 7.94 µM [rising, partial curve]"
c1ccc(Cn2ccnc2SCc2nnc(-c3ccccc3)o2)cc1,inconclusive: -8.15%,
CN(Cc1ccccc1)S(=O)(=O)c1ccc2[nH]cc(C(=O)NCC3CCCO3)c(=O)c2c1 (stereo not given),inactive: -15.9%,
Cc1ccc(-c2noc(CCC(=O)NC3CCN(Cc4ccccc4)CC3)n2)cc1,inconclusive: -11%,
Cc1ccc(S(=O)(=O)N2CCN(C(=O)COc3ccc(-c4nnco4)cc3)CC2)cc1,inactive: -5.97%,
Cc1nnc(N(Cc2ccco2)C(=O)c2cccc(C#N)c2)s1,inconclusive: 13.5%,
Oc1c(CN2CCOCC2)cc(-c2ccccc2)cc1CN1CCOCC1,inconclusive: -9.81%,
CCCCCOC(=O)C1=C(C)N(C)C(=O)NC1c1cc(Br)c(O)c(OC)c1 (stereo not given),,"inconclusive: 12.6 µM [rising, partial curve]"
N#CCCN1CCN(C(=S)c2ccc(-c3ccc(Cl)c(Cl)c3)o2)CC1,,"inconclusive: 10 µM [rising, partial curve]"
CC(=O)Nc1ccc(OCC(O)CN2CCN(c3cccc(Cl)c3)CC2)cc1 (stereo not given),inconclusive: -21%,
Cc1ccc(-c2cn3cccnc3n2)cc1NC(=O)c1c(-c2ccccc2Cl)noc1C,inconclusive: 10.7%,
N#Cc1nc(COc2ccc(F)cc2)oc1N1CCCC1,inactive: 7.85%,
CC1(C)CC(=O)c2sc(NS(=O)(=O)Cc3ccccc3)nc2C1,inconclusive: -17.3%,
CCOC(=O)c1ccc(NC(=O)CSc2nnc(Cc3cccs3)n2C)cc1,inconclusive: -14.6%,
CCOC(=O)Cn1c(=N)n(Cc2ccccc2F)c2ccccc21,inactive: -20.1%,

# — PubChem BioAssay AID662 (National Center for Advancing Translational Sciences (NCATS), 2007)
